# The supplement of paper PMC11417369
# Some of the results follow.
# Tested on: PF3D7_0420300 AP2 domain 1 (GST-tagged)
# Test: gcPBM binding intensity (ln(normalized median fluorescence intensity)); higher = stronger DNA binding
# Procedure, shortened: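 Using an Agilent 4 × 180k array, primer-extended double-stranded 36-bp intergenic genomic probes and negative controls were exposed for 1 h to GST-fused P. falciparum DNA-binding domains expressed in E. coli. Binding was carried out in 1× PBS with 1% milk, 0.2 mg/ml BSA, 0.5% salmon testes DNA and 0.03% Triton X-100, and protein was detected with Alexa488 anti-GST antibody and a 488 nm scan. Binding intensity is the highest Masliner-normalised natural-log median intensity across replicate spots of either probe orientation.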
row,Sequence,gcPBM binding intensity (ln)
1,TGTACATATATATAATATATATATCATCATATTTTC [CACACA_negctrl_site1750],9.23
2,TATATATATATATCCACACACATACAGATATTAAGA [CACACA_site4214],9.73
3,AGTATACGAATAAAATGTACATACAAATTGTTGTAA [XGTACX_site36],9.34
4,TCCTTAAAATATATCACACATTTCGTTCATTTATAA [CACACA_site4346],9.42
5,ATTCACGTGTCTTAAAAAAAAAAAAAAGAAAAAAAG [CACACA_negctrl_site573],8.91
6,ATATATATATATATATGTACATATATATACATATAT [XGTACX_site6987],9.13
7,GTCTAAGCTTATAGGCGTACACATGAATATGGATGT [XGTACX_site2439],9.29
8,ATACATAAAATTAAAACACACATTTGATTAAATACG [CACACA_site7088],9.63
9,ATCAAGCGCAATGTGGTGCGTAAATTTTGTATTATA,9.25
10,AAAGGATACAGACACACACACACATATATATATATA [CACACA_site906],9.99
11,GGATTTATTATATATACACACATACATATATATATA [CACACA_site8669],9.71
12,ATAAGAAAAAAGAACTGTACTAATAAAATATAAAAA [XGTACX_site3715],9.3
13,ATTATATAATTGTCTTCACACACACCGATATATATA [CACACA_site8883],9.93
14,GCGGCGGTATCATGCACACGTATATATTGTAACAGT [CACACA_site4958],9.27
15,TCATTGAAAAAAATGTGTACTCATCAAGTATATATT [XGTACX_site6430],9.15
16,TTTACAGATACATTCACACATAAATTCATGTATAAT [CACACA_site5387],9.28
17,ATATATAATTTTTGTTGTACATTATAAAAATAATTA [XGTACX_site2738],8.94
18,ATTGTTATGAGAACAGCACACAAGCTACATCATATA [CACACA_site8192],9.26
19,TATATAAGGATATATACACACATATAGGTATTTATA [CACACA_site7092],9.42
20,TCAGGAATATAAAGTGCACACATAATTTGGGGGCAA [CACACA_site7974],9.5
21,AATATGATTATTACCCGTACATATTACCTTATGGTA [XGTACX_site1714],9.21
22,AATGATATTATCTCTTCACACACTCACATACAGACA [CACACA_site8335],9.49

row,Sequence,gcPBM binding intensity (ln)
1,TTTTAAAAAAATAAAAAATAATAAAAAAAATAAAAA [CACACA_negctrl_site1693],9.05
2,AAAAATAAATAAAGTGGTACATAAAAAAGAGAAATT [XGTACX_site874],9.74
3,GTGCATATGTAGATATGTACATATTTATTTATTATT [XGTACX_site7343],9.19
4,TATTTATTATTATGTACACACTATATTAAAACATAA [CACACA_site4549],9.22
5,TATGTGAATCCTAAGTGTACACATCTTACATATATA [XGTACX_site2506],9.3
6,AGTATACGCAGACACACACACACATATATATATATA [CACACA_site1735],9.98
7,GGTATATGCATAAAGAGTACGTAACTTCTTTTTGTT [XGTACX_site6344],9.48
8,ATAAGATGATTAATTACACACTTTATAGGATATTTA [CACACA_site1711],9.29
9,AAATGTGTAAATATAATTAGTTTCACAAAACAAATA [GTGCAC_negctrl_site543],9.29
10,TTTTTTTTTTTTTCTTCACACACAGTACTACTATTT [CACACA_site8759],9.55
11,TTAGCTTTTTTTTAAACATGCAACTACTTGATCCAC [TGCATGCA_site1017],8.95
12,AAACGTAACATATATATATATATATATAAGATATAT [CACACA_negctrl_site126],9.37
13,AATGAATATATATAAATATATATATATATATATATA [CACACA_negctrl_site1494],8.85
14,ATAAATCTACACCGCACACAAAAACAACAAATATTA [CACACA_site5396],9.61
15,ATGTTATTACATAATTGTACATTTTGAGCAATTAAG [XGTACX_site4640],9.08
16,ATATTTGTATAAATTGCACACTTTATTTTTTTTAAG [CACACA_site1558],9.34
17,TATATAATATTCTACACACCAACAACAAACATATAT [CACACA_site567],9.7
18,ATATTCTGATTTTAGATGCACTTCGTTAACAAAATA [GTGCAC_site9958],9.13
19,ATATATATATTTATATGTACATAATATAAAATTTCT [XGTACX_site3720],9.08
20,TTATATATATGTGTATGTACATATATATATATATAT [XGTACX_site1141],9.23
21,AAAAGAATAATAATTTATGTATATTAATTAAAGAAT [XGTACX_negctrl_site402],9.21
22,TATCATATATTATATGCACACATGTTTTTCAAGAAT [CACACA_site1892],9.31

row,Sequence,gcPBM binding intensity (ln)
1,TATTACACATATTATGTGCACATATATAATCAATAT,9.34
2,ATTTTATTTTTGTGCACACTGATAAATTGAAAAGAG [CACACA_site2948],9.18
3,AAAAAAAAAAATTAAAGTACTAATTAAAATTATATG [XGTACX_site5289],9
4,TATATATATATAATATGTACATATATTAAGCATTTT [XGTACX_site4470],9.31
5,ATAAATTTTTTATGAACACACAAATACCCACGCTCA [CACACA_site2659],9.49
6,TTTTAATTAAATAAATGTACTCATTCTATTATTTAT [XGTACX_site3032],9.11
7,ATACCTGTTGTGTTACGTACATAATTTTAATGTTTG [XGTACX_site8181],9.62
8,AAATTCAATTTGCGCTGTACATGAAGATATAAATTT [XGTACX_site4844],9.18
9,AAAAAAAACACGCGCACACACACACCCACAGACACA [CACACA_site5253],9.92
10,TATTTTTTAAAAAATTATAAATAAAATTATATTACG [CACACA_negctrl_site324],8.78
11,TATATATATAAATACACACACACACCCCAAAGCGTA [CACACA_site4211],10.1
12,TATAATATATTCACTCGTACATATTTAATAATATCT [XGTACX_site6209],9.34
13,ACAGTATATTAAAAAATACACACGTATTATATCTAC [CACACA_site2640],9.4
14,CCAAAAAATATATGTAGTACTACATTATTAAATATG [XGTACX_site5128],9.24
15,ATGTATAAACAAAAGGGTACATATATATATATATAT [XGTACX_site2087],9.24
16,AGAAAAATTACAAAATGTACATAATGTGTTATTAAT [XGTACX_site7877],9.35
17,AATAAAAAACATGAAAGTACTTTAAAAAAGGTAATA [XGTACX_site1897],9.53
18,AAGTACATACATAAAACACACACATATATATATATA [CACACA_site8541],9.59
19,AATATATAAATCAATAGTACATATATATATATATAT [XGTACX_site3898],9.02
20,ATTAAGTACTAAAAAGTGCAGTTCGGTACTGTGCTT [GTGCAC_site9755],9.25
21,ATTAAATATGAGGGAACACACACATGATATATAAAT [CACACA_site8755],9.97
22,TTATATAAAGAATGTACACACAGAAATGCACCCACA [CACACA_site2282],9.73

row,Sequence,gcPBM binding intensity (ln)
1,TTATATTTATAAAGGTGTACCTTAAAATGATTTTAC [XGTACX_site3774],8.89
2,AAAATTAAATAAAAATGTACAGAAATATTATATGAA [XGTACX_site5695],9.37
3,ATATATTATATTAATTGTACATAAAAAAGAGAAAAA [XGTACX_site3366],9.25
4,TACATACACGGACACACACACATATATATATATATA [CACACA_site5883],9.95
5,TAATTTTATATTAAAAGTACATAATAAAAACTATAA [XGTACX_site8779],9.06
6,AAGAAATATATATATATATATATATATATATATGTA [TGCATGCA_negctrl_site442],9.08
7,TTTAAAAACAAATATTGTACAAATTAAAATATATCA [XGTACX_site7220],9.07
8,AGAGCATAATAAAACACACACATACATACAGATATA [CACACA_site4671],9.87
9,CACTAATATATATACAGTACATAATAAAGTATATAA [XGTACX_site6875],9.32
10,TGATGATATAAAAACACACACATATAATATAATACT [CACACA_site1208],10
11,CTGTTTTACTTTAGTAGTACAATAAAAATATAAAAA [XGTACX_site2934],9.02
12,TATTACCCATATTATACACACATATATTATATATAT [CACACA_site1567],9.54
13,AAAAAAAAAAAACATACACACAAATATATACATACA [CACACA_site4011],9.89
14,ATAATATCTTCTTTTTTTTTTTTTTTTTTTTTTTTT [CACACA_negctrl_site1005],9.04
15,AAATGATGCATTTGTCATTAAAATTGTGAAATATTA [CACACA_negctrl_site231],8.98
16,AAAAAAAAAAAAAAAAGTACATATATATATAATTAT [XGTACX_site7836],9.37
17,TATAATAAAATATGTACACACATACAGACATATATA [CACACA_site6693],9.74
18,ATATATATATAATGTGTACACACATATGTATTTATA [CACACA_site8170],9.53
19,TAATTAAGATGATAAAAATTGAAAAAACAATTTTAA [CACACA_negctrl_site658],8.81
20,AGAGTATATAAAGTAACACACAATAAAATAAAATAA [CACACA_site2328],9.82
21,CATATAGTATAAATTTGTACATAAATATATATATAT [XGTACX_site7477],9.36
22,TTTCTAATTTATATCACACACATATATTTATAGTAA [CACACA_site6280],9.45
